{
  "source": "paper PMC4336329",
  "about": "(PLoS ONE, 2015)",
  "note": "Screen size: about 310,000 compounds; about 14,000 (4.5%) showed an effect of 50% or more. Effects have a minus sign here. The list shows a part of the results.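 Also: peak tail current of the secondary pulse compared with the same well before compound.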",
  "data": [
    {"target": "human ether-à-go-go-related gene (hERG) potassium channel (human, UniProt Q12809)", "sequence (Q12809 whole entry, looked up)": "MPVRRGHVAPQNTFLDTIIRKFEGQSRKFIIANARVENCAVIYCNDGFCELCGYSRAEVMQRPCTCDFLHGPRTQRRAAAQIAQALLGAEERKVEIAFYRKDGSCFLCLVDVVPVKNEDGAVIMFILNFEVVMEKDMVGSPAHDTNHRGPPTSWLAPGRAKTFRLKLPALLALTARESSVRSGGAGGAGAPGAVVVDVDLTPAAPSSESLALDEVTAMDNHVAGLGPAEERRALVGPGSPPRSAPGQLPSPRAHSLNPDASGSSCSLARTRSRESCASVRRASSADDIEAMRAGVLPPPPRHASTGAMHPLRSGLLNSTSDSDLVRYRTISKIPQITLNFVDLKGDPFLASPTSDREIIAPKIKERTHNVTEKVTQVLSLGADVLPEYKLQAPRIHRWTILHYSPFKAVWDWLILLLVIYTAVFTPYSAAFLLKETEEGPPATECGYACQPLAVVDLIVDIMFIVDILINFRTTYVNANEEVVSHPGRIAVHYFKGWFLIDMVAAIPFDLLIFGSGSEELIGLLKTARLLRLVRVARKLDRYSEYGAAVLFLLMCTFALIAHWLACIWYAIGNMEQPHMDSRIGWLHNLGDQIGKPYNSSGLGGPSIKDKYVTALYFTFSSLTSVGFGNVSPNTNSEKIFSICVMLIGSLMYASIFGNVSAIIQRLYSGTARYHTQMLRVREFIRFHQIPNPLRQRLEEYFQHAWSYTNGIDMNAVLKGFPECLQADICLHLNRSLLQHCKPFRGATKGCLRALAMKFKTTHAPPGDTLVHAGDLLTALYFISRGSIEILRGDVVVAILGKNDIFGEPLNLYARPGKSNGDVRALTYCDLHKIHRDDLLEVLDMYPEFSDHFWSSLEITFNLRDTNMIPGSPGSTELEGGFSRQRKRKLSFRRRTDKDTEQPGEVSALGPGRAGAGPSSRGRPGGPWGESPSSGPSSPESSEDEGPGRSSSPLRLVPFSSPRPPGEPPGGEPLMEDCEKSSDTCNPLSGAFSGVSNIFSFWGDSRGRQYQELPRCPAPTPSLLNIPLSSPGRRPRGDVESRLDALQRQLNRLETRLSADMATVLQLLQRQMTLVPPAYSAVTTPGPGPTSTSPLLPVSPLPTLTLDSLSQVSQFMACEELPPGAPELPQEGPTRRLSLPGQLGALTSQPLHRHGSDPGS", "test": "primary screen, population patch clamp on CHO cells stably expressing hERG", "units": {"hERG current change (%, negative = inhibition) at 10uM": "%"}, "values": [
      {"smiles": "COC(=O)c1c(C)[nH]c(C(=O)COC(=O)CCNS(=O)(=O)c2cccc(C(F)(F)F)c2)c1C", "hERG current change (%, negative = inhibition) at 10uM": -6.21},
      {"smiles": "O=C(NN1C(=O)C2C3C=CC(O3)C2C1=O)c1ccncc1", "note": "(centres unmarked)", "hERG current change (%, negative = inhibition) at 10uM": 4.98},
      {"smiles": "COC(=O)c1cccc(NC(=O)c2ccc3c(c2)C(=O)N(Cc2cccnc2)C3=O)c1C", "hERG current change (%, negative = inhibition) at 10uM": 22.4},
      {"smiles": "C[N+](C)(C)CCNC(=O)c1cc[n+](Cc2ccccc2)c(/C=N/O)c1.[I-]", "hERG current change (%, negative = inhibition) at 10uM": 17.6},
      {"smiles": "CCOC(=O)CCc1c(C)c2ccc(OCc3cc([N+](=O)[O-])ccc3OC)cc2oc1=O", "hERG current change (%, negative = inhibition) at 10uM": 5.69},
      {"smiles": "CCOC(=O)C1CCCN(C(=O)CCNS(=O)(=O)c2ccc(Br)cc2)C1", "note": "(centres unmarked)", "hERG current change (%, negative = inhibition) at 10uM": -37.4},
      {"smiles": "Cc1ccccc1NC(=O)C(C)O/N=C/c1cccc([N+](=O)[O-])c1", "note": "(centres unmarked)", "hERG current change (%, negative = inhibition) at 10uM": -38.7},
      {"smiles": "COc1cc(C(=O)NC2CCCC2)c(Br)c(OC)c1OC", "hERG current change (%, negative = inhibition) at 10uM": 7.61},
      {"smiles": "COCCNC(=O)c1cc2c(s1)-c1ccc(Cl)cc1SC2", "hERG current change (%, negative = inhibition) at 10uM": -5},
      {"smiles": "CCOC(=O)N1CCC(NC(=O)C(CC(C)C)NC(=O)C2CCC(C)CC2)CC1", "note": "(centres unmarked)", "hERG current change (%, negative = inhibition) at 10uM": 7},
      {"smiles": "Cc1cc(C)c2cc(CN(Cc3nnnn3C3CCCCC3)CC3CCCO3)c(=O)[nH]c2c1", "note": "(centres unmarked)", "hERG current change (%, negative = inhibition) at 10uM": -35.1},
      {"smiles": "COC(=O)N/N=C(\\C)c1ccc(C)c([N+](=O)[O-])c1", "hERG current change (%, negative = inhibition) at 10uM": -0.21},
      {"smiles": "CC(=O)Nc1ccc(CC#N)cc1", "hERG current change (%, negative = inhibition) at 10uM": 15},
      {"smiles": "CC(=O)Nc1ccc(-c2csc(NC(=O)Cc3cccc(F)c3)n2)cc1", "hERG current change (%, negative = inhibition) at 10uM": 0.461},
      {"smiles": "COc1ccc(/C=C/C(=O)Nc2cccc(F)c2)cc1S(=O)(=O)N1CCOCC1", "hERG current change (%, negative = inhibition) at 10uM": -26.7},
      {"smiles": "CCN(CC)S(=O)(=O)c1ccc(NC(=S)Nc2ccccc2)cc1", "hERG current change (%, negative = inhibition) at 10uM": 10.4},
      {"smiles": "O=C(Nc1ccc(F)cc1)N1CCN(c2nc3ccccc3s2)CC1", "hERG current change (%, negative = inhibition) at 10uM": 1.48},
      {"smiles": "COC(=O)CCSc1cc([N+](=O)[O-])cc2c1c(C1OCCO1)nn2-c1ccccc1", "hERG current change (%, negative = inhibition) at 10uM": 11.6},
      {"smiles": "CC(=O)N1CCCC(C(=O)c2ccc(Oc3ccccc3)cc2)C1", "note": "(centres unmarked)", "hERG current change (%, negative = inhibition) at 10uM": -5.43},
      {"smiles": "CC(NC(=O)COC(=O)CC(c1ccccc1)c1ccccc1)c1ccccc1", "note": "(centres unmarked)", "hERG current change (%, negative = inhibition) at 10uM": -24.7},
      {"smiles": "O=C(Nc1ccccc1)c1c(O)c2c(n(Cc3ccco3)c1=O)CCCC2", "hERG current change (%, negative = inhibition) at 10uM": 10.8},
      {"smiles": "CCC(c1nnnn1Cc1ccccc1)N1CCN(C(=O)c2ccco2)CC1", "note": "(centres unmarked)", "hERG current change (%, negative = inhibition) at 10uM": -36.3},
      {"smiles": "Cc1ccc(C(=O)Nc2ccccc2N2CCCC2)cc1S(=O)(=O)N1CCOCC1", "hERG current change (%, negative = inhibition) at 10uM": -51.2},
      {"smiles": "CCOc1cc(OCC)c(C(C)=O)cc1OCC", "hERG current change (%, negative = inhibition) at 10uM": 20.1},
      {"smiles": "CCc1c(O)cc(=O)n(-c2ccccc2)c1-c1ccccc1", "hERG current change (%, negative = inhibition) at 10uM": 6.51},
      {"smiles": "Cc1ccc(C)c(NC(=O)COC(=O)CCC(=O)c2cccs2)c1", "hERG current change (%, negative = inhibition) at 10uM": 16.6},
      {"smiles": "CCCCOc1cccc(C(=O)Nc2ccc(N3CCN(CC)CC3)cc2)c1", "hERG current change (%, negative = inhibition) at 10uM": -31.9},
      {"smiles": "O=C(c1ccc(F)cc1)C1CCN(C(=O)c2ccncc2)CC1", "hERG current change (%, negative = inhibition) at 10uM": -22.4},
      {"smiles": "CN(C)C(=O)COC(=O)c1cc(Cl)cc(Cl)c1N", "hERG current change (%, negative = inhibition) at 10uM": -14.4},
      {"smiles": "Cc1ccc(C(C(=O)NC(C)(C)C)N(CC2CCCO2)C(=O)Cn2nnc(-c3ccc(C)o3)n2)cc1", "note": "(centres unmarked)", "hERG current change (%, negative = inhibition) at 10uM": 1.13},
      {"smiles": "COc1ccc(C(=O)N(CC(=O)NC(C)(C)C)c2ccc3c(c2)OCCO3)cc1OC", "hERG current change (%, negative = inhibition) at 10uM": 3.82},
      {"smiles": "COC(=O)c1ccc(COC(=O)c2cccn2C)o1", "hERG current change (%, negative = inhibition) at 10uM": 0.0514},
      {"smiles": "Cc1cc(C)cc(-n2c(C)cc(C=C(C#N)C#N)c2C)c1", "hERG current change (%, negative = inhibition) at 10uM": 3.61},
      {"smiles": "COC(=O)c1cc(S(=O)(=O)N2CCOCC2)c(Cl)cc1N1CCOCC1", "hERG current change (%, negative = inhibition) at 10uM": -15},
      {"smiles": "COCCCN1C2=C(C(=O)CC(C)(C)C2)C(c2ccc(O)c(OC)c2)C2=C1CC(C)(C)CC2=O", "hERG current change (%, negative = inhibition) at 10uM": 11.2},
      {"smiles": "COc1ccc(NC(=O)CCC(=O)OCc2ccc(Br)cc2)cc1", "hERG current change (%, negative = inhibition) at 10uM": 0.107},
      {"smiles": "CCC(C)(C)NC(=O)c1ccc2c(c1)N(CC(=O)NC1CCCC1)C(=O)C(C)(C)O2", "hERG current change (%, negative = inhibition) at 10uM": 8.4},
      {"smiles": "O=C1C2C3C=CC(C3=C(c3ccccc3)c3ccccc3)C2C(=O)N1Cc1ccccc1", "note": "(centres unmarked)", "hERG current change (%, negative = inhibition) at 10uM": 16.4},
      {"smiles": "Cc1cc(NS(=O)(=O)c2ccc(Br)s2)no1", "hERG current change (%, negative = inhibition) at 10uM": 17.4},
      {"smiles": "CCOc1ccc(NC(=O)CN(C)C(=O)CCCOc2ccc(Br)cc2)cc1OCC", "hERG current change (%, negative = inhibition) at 10uM": 3.76},
      {"smiles": "CCC(=O)n1nc(-c2ccccc2)nc1N", "hERG current change (%, negative = inhibition) at 10uM": 9.61},
      {"smiles": "CC1CCC(NC(=O)CN2C(=O)NC(C)(C)C2=O)CC1", "note": "(centres unmarked)", "hERG current change (%, negative = inhibition) at 10uM": 10.4},
      {"smiles": "COc1ccc(S(=O)(=O)Nc2nc3ccccc3nc2NCc2ccc3c(c2)OCO3)cc1", "hERG current change (%, negative = inhibition) at 10uM": 31.5},
      {"smiles": "O=C(NCCN1CCN(C(=O)c2ccc([N+](=O)[O-])cc2)CC1)C(=O)Nc1ccc(F)cc1", "hERG current change (%, negative = inhibition) at 10uM": -76.8},
      {"smiles": "O=C(c1ccco1)N1CCN(S(=O)(=O)c2ccc(Cl)s2)CC1", "hERG current change (%, negative = inhibition) at 10uM": -21.1},
      {"smiles": "CS/C(=N\\S(=O)(=O)c1ccc(Cl)cc1)c1ccccc1", "hERG current change (%, negative = inhibition) at 10uM": -28.1},
      {"smiles": "COc1ccc(CCN2C(=O)CC(N3CCN(c4ccccn4)CC3)C2=O)cc1OC", "note": "(centres unmarked)", "hERG current change (%, negative = inhibition) at 10uM": 3.42},
      {"smiles": "COc1ccc(OC)c(S(=O)(=O)Nc2ccccc2SC)c1", "hERG current change (%, negative = inhibition) at 10uM": -15.2},
      {"smiles": "CC(NC(=O)CC1CCCCC1)c1ccccc1", "note": "(centres unmarked)", "hERG current change (%, negative = inhibition) at 10uM": 17.4},
      {"smiles": "COc1ccc(C)cc1NC(=O)CN1CCN(S(=O)(=O)c2ccc(F)cc2)CC1", "hERG current change (%, negative = inhibition) at 10uM": 7.19},
      {"smiles": "CCOC(=O)CSc1nnc(-c2cccnc2)o1", "hERG current change (%, negative = inhibition) at 10uM": 7.96},
      {"smiles": "Cc1cc(-c2nnc(SCC(=O)Nc3nc(-c4ccccc4)cs3)o2)no1", "hERG current change (%, negative = inhibition) at 10uM": -1.5},
      {"smiles": "CCOc1ccc(OCCCC(=O)ON=C(N)c2ccccc2C)cc1", "hERG current change (%, negative = inhibition) at 10uM": 1.43},
      {"smiles": "Cc1ccc(C2=NO[C@@](CC(=O)O)(C(=O)Nc3ccc4c(c3)OCCO4)C2)cc1", "hERG current change (%, negative = inhibition) at 10uM": 11.8},
      {"smiles": "COC(=O)C1=C(CS(=O)(=O)c2ccc(Cl)cc2)NC(=O)NC1c1ccc(O)cc1", "note": "(centres unmarked)", "hERG current change (%, negative = inhibition) at 10uM": 7.7},
      {"smiles": "CC[n+]1c(/C=C/c2cc([N+](=O)[O-])ccc2O)ccc2ccccc21.[I-]", "hERG current change (%, negative = inhibition) at 10uM": -27.3}
    ]}
  ]
}
